Data taken from PubChem BioAssay AID1963576 (National Center for Advancing Translational Sciences (NCATS), 2024).
About 60 (0.1%) of roughly 46,000 compounds were called active. Not shown: some 3% with an inconclusive outcome. Calls come from the whole dose curve; as a rule, active = well fitted inhibition curve with a large enough effect; inconclusive = small, poorly fitted or top-dose-only effect; inactive = no such curve, though single readings can be large or run the other way. The list shows a part of the results.

test: Primary qHTS assay for Inhibitors of ovarian cancer metastasis using an organotypic tumor microenvironment (TME) model.; note: nearly all actives have a fitted effect of over 65% in size;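 for activity change, negative = inhibition: plate controls were DMSO wells for no effect and tomatine positive control wells for full effect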; settings: SKOV3ip1-GFP adhesion/invasion on 3D omental model, fluorescence; series mostly up to 45.8 µM; activity change, negative = inhibition: at the top concentration
How it was run: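 Adhesion/invasion was scored as fixed GFP-labeled SKOV3ip1 cell counts (488/509 nm), normalized to DMSO and tomatine controls. Cancer cells in serum-free medium, with four compound doses (0.36-46 umol/L), sat 2 hr at RT then 16 hr at 37 C on a 48 hr fibroblast/mesothelial/ECM culture.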

Activity change, negative = inhibition, inactive:
Cn1c(=O)c2sccc2n2c(CCC(=O)NCc3ccccc3Cl)nnc12 21.9%
Cc1cc(C)cc(NC(=O)C2CCC(CNS(=O)(=O)c3ccc4c(c3)C(C)(C)C(=O)N4C)CC2)c1 (centres undefined) 19.5%
COc1ccc(CCNC(=O)c2c(C)oc3ncn(CC(C)C)c(=O)c23)cc1OC 20.9%
O=C(c1ccco1)N1CCN(c2nc3c(Cl)cccc3s2)CC1 5.88%
CCN(CC)S(=O)(=O)c1nnc(NC(=O)c2ccc(C(C)C)cc2)s1 9.21%
CC1CCN(c2ncnc3c2nnn3C)CC1 5.77%
O=C(Cn1c(=O)n(-c2ccc(Cl)cc2)c(=O)c2oc3ccccc3c21)Nc1ccccc1 -8.92%
Cc1cccc(N2CCN(CCCNC(=O)c3nnc(Cc4c(F)cccc4Cl)o3)CC2C)c1 (centres undefined) -4.87%
COc1ccc(C2=C(C)C(=O)N(Cc3ccc(C(=O)Nc4cc(C)ccc4C)cc3)S2(=O)=O)cc1 -5.08%
Cn1cnc(S(=O)(=O)N2CCC(C(=O)NCc3ccc(F)cc3)CC2)c1 10.6%
O=C(Cc1ccc(Cl)cc1)NCC(c1cccs1)S(=O)(=O)c1ccc(F)cc1 (centres undefined) 3.13%
COc1cccc(C(=O)Nc2ccc3nc(N4CCC(C)CC4)cc(C)c3c2)c1 4.13%
O=C(COC(=O)c1cccc(NC(=O)c2ccc(Br)cc2)c1)c1ccc(Br)cc1 -0.694%
Cc1nn2c(=O)cc(COC(=O)c3cccc(NC(=O)c4ccc(C(C)(C)C)cc4)c3)nc2s1 3.22%
COc1cc(NC(=O)Cn2nc(-c3ccc(C)c(C)c3)ccc2=O)cc(OC)c1 -0.327%
CCOC(=O)c1c(C)oc2nc(C)nc(NCCc3ccc(SC)cc3)c12 -0.747%
Cc1ccc(S(=O)(=O)c2nc(S(C)(=O)=O)sc2NCc2ccccc2)cc1 5.4%
COc1ccccc1N1CCN(c2nc3ccc(C)cc3n3nnnc23)CC1 2.15%
CC(C)NC(=O)c1ccccc1NC(=O)c1nsc2ccccc12 0.448%
CCN(CC)S(=O)(=O)c1ccc2c(c1)N(CC(=O)Nc1ccc(C)cc1C)C(=O)C1CCCN21 (centres undefined) -4.87%
COc1ccc(C2=CC(c3cccc(C)c3)n3nnnc3N2)cc1 (centres undefined) 5.59%
COc1ccc(C(=O)CCC(=O)Nc2ccc(OC)c(Cl)c2)cc1 2.48%
CCOC(=O)c1[nH]c2c(c1Cc1ccccc1OC)C(=O)CC(c1ccc(OCC)cc1)C2 (centres undefined) -11.4%
COc1ccc(S(=O)(=O)c2c(Nc3ccc(C)cc3)sc(C(=O)c3ccc4c(c3)OCO4)c2N)cc1 13.3%
Cc1cnc2c(c1SCC(=O)Nc1ccc(F)cc1F)c(=O)n(C)c(=O)n2C 2.82%
Cc1cc(F)ccc1NC(=O)C1CCCN(S(=O)(=O)c2ccc3c(c2)CCCC(=O)N3)C1 (centres undefined) 8.88%
COc1ccccc1CNC(=O)c1ccc(-c2nc(CS(=O)c3ccccc3)c(C)o2)cc1 (centres undefined) 8.46%
CCCCn1cc(S(=O)(=O)c2ccc(F)cc2)c(=O)c2ccccc21 -8.48%
Cc1ccc(Cl)cc1NC(=O)CN1C(=O)COc2ccc(S(=O)(=O)N3CCOCC3)cc21 -22.7%
CCc1cc2c(cc3c(=O)n(CC(=O)N4CCCCC4)ncn32)s1 8.79%
CCOc1ccc2nc(N3CCCC(C(=O)Nc4cccc(Cl)c4C)C3)sc2c1 (centres undefined) 4.17%
Cc1ccc(CN2CCNCC2)cc1NC(=O)CNc1ccc(F)c(F)c1 4.99%
Cc1ccc(-n2c(=O)c3ccc(C(=O)NCc4ccccc4Cl)cc3n(CC(=O)Nc3cccc(F)c3)c2=O)cc1 -22%
CCOc1ccc(N2C(=O)N(Cc3c(F)cccc3Cl)c3ccccc3S2(=O)=O)cc1 19.5%
Cc1ccc2[nH]c3c(=O)n(CC(=O)N4CCN(c5cccc(C(F)(F)F)c5)CC4)ncc3c2c1 33.5%
CN(C)c1ccc(CN(CC2CCCO2)C(=O)c2ccc(Br)cc2)cc1 (centres undefined) -7.38%
CCCCOc1ccc(NC(=O)Cn2nnnc2-c2ccccc2F)cc1 -0.216%
COc1cc2c(Nc3ccc(Cl)c(Cl)c3F)ncnc2cc1OCC1C[C@@H]2CN(C)C[C@H]2C1 -26%
O=C(COCc1cc(-c2cccs2)on1)Nc1ccc(OC(F)(F)F)cc1 -1.84%
O=S(=O)(O)CCSSCCS(=O)(=O)O 17.1%
COc1ccc2ncc3c(-c4ccc(C)c(C)c4)nn(CC(=O)NC4CCCCC4)c3c2c1 -7.58%
Cc1ccc(S(=O)(=O)c2nc(-c3ccco3)oc2SCC(C)C)cc1 -5.94%
COc1cc(OC)c(NC(=O)Cn2cnc3sc(C)c(S(=O)(=O)N4CCN(C)CC4)c3c2=O)cc1Cl -0.162%
CCc1ccc(NC(=O)c2nn(-c3ccc(C)cc3)c(=O)n(C)c2=O)cc1 2.11%
CCOc1ccc(Br)cc1CNCCSc1nnnn1-c1ccccc1 -21.1%
CCc1ccccc1NC(=O)CN1C(=O)c2cccnc2Oc2ccc(Cl)cc21 -21.5%
Cc1ccc(C)c(NC(=O)C(=O)NCCc2csc3nc(-c4ccccc4C)nn23)c1 -1.75%
CCOC(=O)c1oc2c(c1C)-c1nn(Cc3ccccc3Cl)cc1CC2 -9.56%
COc1ccc(CNC(=O)c2cc3c(s2)-c2c(C)cccc2OC3)cc1 -1.62%
CO[C@H]1C(=O)[C@]2(C)[C@@H](OC)C[C@H]3OC[C@@]3(OC(C)=O)[C@H]2[C@H](OC(=O)c2ccccc2)[C@]2(O)C[C@H](OC(=O)[C@H](O)[C@@H](NC(=O)OC(C)(C)C)c3ccccc3)C(C)=C1C2(C)C 7.55%
COC(=O)NCc1c(C)nn(-c2ccccc2)c1-n1cccc1 15.7%
CCN1CCN(Cc2c(O)ccc3c(C)c(-c4ccccc4)c(=O)oc23)CC1 0.902%
Cc1cccc(-n2ncc(C(=O)NCc3ccccn3)c2C2CCN(C(=O)OC(C)(C)C)CC2)c1 -10.5%
CNC(=O)c1sc2ncccc2c1-n1cccc1 -16.1%
CCCS(=O)(=O)N1CC(=O)N(c2ccccc2C)C(C)(C(=O)NC2CCCC2)C1 (centres undefined) 4.31%
COc1ccc(NC(=O)CC2C(=O)N(c3ccc(C)cc3)C(=O)N2Cc2cccnc2)cc1 (centres undefined) 17.3%
CCOC(=O)N1CCC2(CC1)OC(=O)C(C)=C2C(=O)NCc1cccc(OC)c1 11.4%
Cc1cc(NC(=O)Cn2nc(C)n3cccc3c2=O)ccc1Br 6.19%
Cc1ccc(NC(=O)Cn2c(=O)n(CCC(=O)NCc3ccc4c(c3)OCO4)c(=O)c3sccc32)c(C)c1 -20.7%
Cc1ccc(NC(=O)C(c2ccccc2)N2Cc3ccccc3C2=O)cc1Cl (centres undefined) 7.05%
Cc1ccc(C)c(N2CCN(c3nc4ccccc4n4c(C)nnc34)CC2)c1 -0.026%
COc1ccccc1Nc1nn2c(=O)c3ccc(C(=O)NCc4ccc(F)cc4)cc3nc2s1 -13.5%
O=C(NCCc1ccccc1)C(=O)NCC(c1cccnc1)N1CCN(c2ccccc2F)CC1 (centres undefined) 9.57%
COc1ccc(C(=O)Nc2ccc(-c3cc4ccccc4oc3=O)c(C)c2)cc1OC 0.0988%
CCc1cccc2c(-c3ccc(F)cc3)nc(SCC(=O)Nc3ccccc3)nc12 -0.654%
Cc1ccc(CNC(=O)C(=O)NCC(c2ccco2)S(=O)(=O)c2cccs2)cc1 (centres undefined) 17%
COc1ccc(CCNC(=O)c2ccc(CS(=O)(=O)Cc3cccc(C)c3)o2)cc1OC -4.03%
COc1ccc(-c2n[nH]c3c2C(c2ccc(O)cc2)N(c2ccc(Br)cc2)C3=O)cc1 (centres undefined) -9.18%
CCOc1ccc(NC(=O)CSc2cn(CC(=O)N3CCCCCC3)c3ccccc23)cc1 -11.7%
C=C(C)CSc1nc2sc3c(c2c(=O)n1-c1ccccc1)CCC(C)C3 (centres undefined) -4.69%
CCN1CCN(c2ncnc3c2cnn3-c2ccc(C)cc2)CC1 -0.131%
CCOC(=O)c1c(C)[nH]c(C)c1S(=O)(=O)N1CCCC(C(=O)Nc2ccc(F)cc2F)C1 (centres undefined) 4.1%
COc1cc(C2CC(=O)N(c3ccccc3)C3=C2C(=O)OC3)cc(OC)c1OC (centres undefined) 2.77%
O=C(NC1CCCCCC1)c1ccc2c(c1)sc1nc(-c3ccccc3)cn12 -42.6%
CCOc1ccc(NC(=O)CSC2=Nc3ccccc3C3=NC(CC(=O)NCc4ccco4)C(=O)N23)cc1 (centres undefined) 13.2%

outcome, inactive:
CCn1cc(C(=O)NCCc2ccc(C)cc2)c(=O)c2cc(S(=O)(=O)N3CCCCC3)ccc21
CCOc1ccc(C(=O)Nc2cc(-c3cn4cccnc4n3)ccc2C)cc1OCC
COc1cccc(C(=O)Nc2ccccc2-c2nnc(-c3cc(OC)ccc3Br)o2)c1
CCCCN(CCCC)CCNC(=O)c1cc(-c2cccnc2)nc2ccc(S(=O)(=O)N3CCC(C)CC3)cc12
O=C(Cc1ccc(NC(=O)N2CCCCc3ccccc32)cc1)NCc1ccccc1
Cc1ccc2[nH]c(CSc3nnc(COc4ccccc4C)n3C)cc(=O)c2c1
COc1cccc(CNC(=O)CN2C(=O)CSc3c2c(C)nn3-c2ccccc2)c1
Cc1cc2c(cc1C)NC(CC(=O)Nc1ccccc1SC(F)(F)F)C(=O)N2 (centres undefined)
CC(C)(C)OC(=O)N1CCC(c2c(C(=O)Nc3ccc4c(c3)OCCO4)cnn2-c2ccccc2)CC1
CCCCN1C(=O)CN(C2CCCCC2)C(=O)C1c1ccc(OC(C)C)c(OC)c1 (centres undefined)
Cn1c(=O)n(-c2cccc(Cl)c2)c(=O)c2sc3ccccc3c21
O=C(CSc1nc2c(c(=O)[nH]1)CCCC2)Nc1ccc(Br)cc1
COc1ccc(CNc2cc(-c3ccc(OC)cc3)nc3nncn23)cc1
COc1ccc(NC(=O)c2c(C)oc3ccc(O)c(CN4CCC(C)CC4)c23)cc1
CC(C)CCNC(=O)C1CCN(C(=O)N2CCOc3ccc(Cl)cc32)CC1
CCN1CCN(C(c2ccc(F)cc2)c2c(O)cc(C)n(CCOC)c2=O)CC1 (centres undefined)
CSc1cccc(NC(=O)N2CCN(c3cc(-c4noc(C)n4)ccc3C)CC2)c1
COc1ccc(CNC(=O)CC(c2ccc(OC)c(OC)c2)N2Cc3ccccc3C2=O)cc1 (centres undefined)
Cc1cc2ccccc2n1CCNC(=O)c1cccc(Cl)c1
